The values below come from publication PMC6212790.

Some of the results follow. At the low end of the ranking the order means little.

The target in this experiment is T1, GST-Rok (full length) (UniProt O34857).
T1 sequence: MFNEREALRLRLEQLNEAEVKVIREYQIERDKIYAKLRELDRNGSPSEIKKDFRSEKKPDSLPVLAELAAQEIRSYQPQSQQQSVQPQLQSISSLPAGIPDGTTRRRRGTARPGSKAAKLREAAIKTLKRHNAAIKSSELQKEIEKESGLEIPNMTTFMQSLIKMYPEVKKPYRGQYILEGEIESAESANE
Kind of experiment: protein binding microarray.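 Note: rank score from −0.5 (least bound) to 0.5 (best bound).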 The note with it: Rok is a gene silencer of Bacillus subtilis; high values mean tight binding; most listed sequences are background and not binding sites; double strand, one strand shown.
Sequence TCGTTTCA gave a binding signal of -0.125 E-score.
Next, CATGGTGC: -0.232 E-score; AATAACGG: 0.121 E-score; TCTTATAA: 0.176 E-score.
Then CGTCTCCC, with -0.209 E-score; and AATGCGGT, with 0.113 E-score; and ATACAATG, with 0.254 E-score.
Then CTTAGGTA, with 0.0868 E-score; and ACCCTACG, with -0.152 E-score; and AATCGTAG, with 0.219 E-score.
GGTGTGAA yielded a binding signal of -0.095 E-score.
Then CAGCGCGA, with 0.137 E-score; and CGAGGCAA, with -0.0186 E-score; and CACCTTCC, with -0.264 E-score.
Then CTAACACC, with 0.0755 E-score.
Next, AAGCTAAG: -0.0658 E-score; ACCAAAAC: 0.0599 E-score; CTGACCCA: -0.303 E-score.
Turning to ATCTGAGG, the binding signal was -0.202 E-score.
Next, GCTTCATA: -0.0768 E-score; ACTTTTTA: 0.0443 E-score; AGGTCTGC: -0.0687 E-score.
Next, GAACTGTC: -0.0462 E-score; AGATCTTG: 0.21 E-score.
For the sequence ATAACGAA, the binding signal turned out to be 0.23 E-score.
Then AGCATTTA, with 0.0587 E-score; and CAGCAAAA, with -0.111 E-score; and GAAATCTA, with 0.345 E-score.
Next, GACTGAGA: -0.0931 E-score; GCATAGAA: 0.00974 E-score.
Next, GTGTCGGA: -0.00129 E-score; ACTCTGCC: -0.162 E-score; ATGTGAAG: 0.144 E-score.
Regarding AACCTCCA, the binding signal is -0.0934 E-score.
Next, AATGTTAT: 0.273 E-score; CGTGGGCA: -0.264 E-score; ACTGCTCT: -0.277 E-score.
In the case of ACCTGTCT, the binding signal was -0.0271 E-score.
Regarding GAGGACGC, the binding signal was -0.313 E-score.
Then ACCTAGCA, with 0.0856 E-score; and CCCGGCTC, with -0.309 E-score.
Next, CGCAGGTA: 0.0849 E-score.
Next, AGAGGAAC: -0.179 E-score; AACGCGCC: -0.252 E-score.
CCAGGACA registered a binding signal of -0.0859 E-score.
Then GTGTGTCA, with 0.0189 E-score; and CTCGCTGA, with -0.29 E-score; and GACTAGGC, with -0.216 E-score.
Next, AGTCTTCG: 0.0988 E-score; AGCGGGCC: -0.362 E-score; GCAACTGC: -0.178 E-score.
Next, ATGTCTCC: -0.0386 E-score.
In the case of ACTGGCCG, the binding signal came to 0.00991 E-score.
Then ACGAAAGT, with 0.196 E-score.
Then AGACGGGA, with -0.288 E-score; and AGATGTGA, with -0.0336 E-score; and GAGAGAGC, with -0.22 E-score.
Then GACGCATA, with 0.107 E-score; and ACTTCCCA, with -0.0267 E-score; and GCTCACAC, with -0.00918 E-score.
Consider TCGTGGCA, for which the binding signal was -0.249 E-score.
Next, GCCATAGA: 0.067 E-score; CCATACAG: -0.118 E-score.
On to CCGGCTCC, for which the binding signal was -0.356 E-score.
Then GTCGACAC, with -0.204 E-score; and CTCCATCC, with -0.196 E-score; and CCTCTAAA, with -0.049 E-score.
Next, AGACCGGG: -0.216 E-score; CGATCCAC: -0.0874 E-score.
Next, GGGATTAA: 0.0693 E-score; CACGTTCA: -0.0302 E-score; ACGTGTCC: 0.125 E-score.
In turn, CGCATGAG yielded a binding signal of 0.00661 E-score.
In the case of AGCCGGAT, the binding signal is -0.184 E-score.
Then ACGCCAAT, with -0.0858 E-score; and GAACGAGC, with -0.306 E-score; and ATGGTTAA, with 0.222 E-score.
Then GCCTTATA, with -0.0516 E-score.
Then GGGGTGAA, with -0.178 E-score; and AAAATGTC, with 0.0473 E-score; and ACACTCTA, with -0.12 E-score.
The sequence CCCGCGGC yielded a binding signal of -0.246 E-score.
AATGCCAA registered a binding signal of -0.0465 E-score.
Then AAGTTGCT, with 0.216 E-score.
CAGCAAAC yielded a binding signal of 0.0159 E-score.
Then CCAGGTCA, with -0.232 E-score; and ACTAGGTC, with 0.112 E-score; and GCGTCACA, with -0.198 E-score.
Next, CCGAAATA: -0.0247 E-score; AGCAATAC: 0.265 E-score.
Next, AGCTGAGC: -0.256 E-score; ACTAGGAA: 0.221 E-score; CTTTCCTA: 0.153 E-score.
CTCTTGAC came in with a binding signal of -0.188 E-score.
Next, CAGAATTC: 0.179 E-score; TGTTAAAA: 0.121 E-score.
Next, GTGTGTGA: -0.145 E-score.
Sequence ATCAATAG registered a binding signal of 0.155 E-score.
Then GAATCCCC, with -0.265 E-score; and AAGTTCCT, with -0.0902 E-score; and AGAGGCAC, with -0.279 E-score.
Next, CCACGAGC: -0.3 E-score; AGTATATG: 0.264 E-score.
Next, ATTAGCGC: 0.16 E-score.
Sequence CGGTATAA yielded a binding signal of 0.28 E-score.
Next, CCTATTGA: 0.0435 E-score; CTTTCTCA: -0.0968 E-score; CGGTGGCC: -0.221 E-score.
Next, TATGCTGA: 0.103 E-score; GATCACAC: 0.0885 E-score.
